Test results reported in patent publication US9763922B2 (priority 2014, dated 2017).

Columns and labels:
[1] = biological target: CBP (Homo sapiens (Human), UniProt Q92793); assay: biochemical
[2] = biological target: BRD4 BD1 (Homo sapiens (Human), UniProt O60885); assay: biochemical
[3] = system: MYC; assay: cells; conditions: Homo sapiens, MV4-11, 4 h, read-out: Myc IC50 (μM)

CBP, sequence (Q92793 whole entry): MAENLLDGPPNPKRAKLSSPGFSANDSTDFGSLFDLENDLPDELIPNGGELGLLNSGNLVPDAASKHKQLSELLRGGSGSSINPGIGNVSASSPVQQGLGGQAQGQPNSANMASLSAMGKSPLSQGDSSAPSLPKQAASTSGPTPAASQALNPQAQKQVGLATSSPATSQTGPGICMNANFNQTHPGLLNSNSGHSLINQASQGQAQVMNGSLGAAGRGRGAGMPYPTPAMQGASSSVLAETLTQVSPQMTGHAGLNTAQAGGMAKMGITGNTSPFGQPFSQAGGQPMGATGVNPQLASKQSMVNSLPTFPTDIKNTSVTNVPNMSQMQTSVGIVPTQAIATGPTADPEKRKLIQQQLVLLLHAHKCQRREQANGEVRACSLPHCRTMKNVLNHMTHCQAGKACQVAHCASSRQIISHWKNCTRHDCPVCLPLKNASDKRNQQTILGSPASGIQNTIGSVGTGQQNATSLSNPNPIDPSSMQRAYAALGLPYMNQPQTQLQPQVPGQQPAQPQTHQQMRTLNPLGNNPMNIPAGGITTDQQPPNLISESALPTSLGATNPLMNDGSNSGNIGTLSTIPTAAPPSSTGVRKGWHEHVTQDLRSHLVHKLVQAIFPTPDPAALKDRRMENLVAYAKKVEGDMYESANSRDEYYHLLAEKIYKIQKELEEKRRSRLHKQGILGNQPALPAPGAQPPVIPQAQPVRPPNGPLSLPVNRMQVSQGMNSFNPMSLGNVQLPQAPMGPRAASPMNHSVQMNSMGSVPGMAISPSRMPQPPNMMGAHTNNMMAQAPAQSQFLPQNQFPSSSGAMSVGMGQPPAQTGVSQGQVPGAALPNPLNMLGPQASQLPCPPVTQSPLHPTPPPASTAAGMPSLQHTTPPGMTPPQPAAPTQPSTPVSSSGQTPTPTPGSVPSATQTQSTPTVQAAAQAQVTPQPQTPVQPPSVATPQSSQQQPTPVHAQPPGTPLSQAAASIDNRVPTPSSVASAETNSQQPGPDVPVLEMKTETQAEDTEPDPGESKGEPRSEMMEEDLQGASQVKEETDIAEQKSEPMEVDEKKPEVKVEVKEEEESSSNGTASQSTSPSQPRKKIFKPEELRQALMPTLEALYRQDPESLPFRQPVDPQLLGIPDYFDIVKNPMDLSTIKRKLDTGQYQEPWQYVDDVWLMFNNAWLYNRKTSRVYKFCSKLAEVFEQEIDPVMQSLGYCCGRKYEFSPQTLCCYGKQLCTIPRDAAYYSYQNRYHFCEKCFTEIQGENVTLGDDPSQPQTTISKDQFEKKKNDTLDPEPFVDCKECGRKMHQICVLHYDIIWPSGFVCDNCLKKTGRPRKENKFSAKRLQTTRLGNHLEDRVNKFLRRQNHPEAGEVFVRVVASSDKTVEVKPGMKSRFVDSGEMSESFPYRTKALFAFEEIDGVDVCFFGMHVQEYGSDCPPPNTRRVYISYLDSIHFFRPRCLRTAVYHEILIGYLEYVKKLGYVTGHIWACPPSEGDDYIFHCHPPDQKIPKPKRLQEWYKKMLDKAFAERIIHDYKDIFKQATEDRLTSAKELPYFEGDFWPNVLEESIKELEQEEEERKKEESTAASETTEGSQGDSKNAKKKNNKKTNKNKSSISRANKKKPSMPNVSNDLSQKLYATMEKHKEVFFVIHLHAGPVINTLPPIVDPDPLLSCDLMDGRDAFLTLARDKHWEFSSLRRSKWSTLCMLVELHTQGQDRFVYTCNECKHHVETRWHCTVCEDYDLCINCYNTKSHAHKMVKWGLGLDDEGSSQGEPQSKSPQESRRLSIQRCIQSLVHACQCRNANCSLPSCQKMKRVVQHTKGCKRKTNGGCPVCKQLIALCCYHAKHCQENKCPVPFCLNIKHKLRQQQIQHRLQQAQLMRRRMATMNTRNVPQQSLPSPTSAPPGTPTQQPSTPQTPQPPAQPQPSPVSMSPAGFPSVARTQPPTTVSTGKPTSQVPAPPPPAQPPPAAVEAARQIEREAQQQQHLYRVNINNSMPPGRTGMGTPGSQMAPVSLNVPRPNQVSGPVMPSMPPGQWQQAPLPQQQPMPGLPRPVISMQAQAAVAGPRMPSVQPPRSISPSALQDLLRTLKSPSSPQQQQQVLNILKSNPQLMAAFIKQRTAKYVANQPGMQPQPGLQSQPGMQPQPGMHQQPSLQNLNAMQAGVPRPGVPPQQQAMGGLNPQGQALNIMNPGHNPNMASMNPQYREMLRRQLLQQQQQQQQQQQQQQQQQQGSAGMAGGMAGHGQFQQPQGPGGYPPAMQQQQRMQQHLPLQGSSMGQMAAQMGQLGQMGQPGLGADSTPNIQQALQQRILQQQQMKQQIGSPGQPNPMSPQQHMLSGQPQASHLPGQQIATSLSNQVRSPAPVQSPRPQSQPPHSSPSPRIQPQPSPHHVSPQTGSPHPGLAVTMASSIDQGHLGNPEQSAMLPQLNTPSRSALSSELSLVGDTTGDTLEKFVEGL

| Structure (SMILES) | IC50 [1] | IC50 [2] | IC50 [3] |
| --- | --- | --- | --- |
| CC(=O)N1CCc2c(c(N(c3ccccc3)c3ccc(-c4cnn(C)c4)cc3)nn2[C@H]2CCOC2)C1 [Example 229, 1-[3-(N-[4-(1-methylpyrazol-4-yl)phenyl]anilino)-1-[(3S)-tetrahydrofuran-3-yl]-6,7-dihydro-4H-pyrazolo[4,3-c]pyridin-5-yl]ethanone] | 461 nM | > 20000 nM | – |
| COc1ccc(-c2ccc3c(c2)CCCN3c2nn(C3COC3)c3c2CN(C(C)=O)CC3)cn1 [Example 19, 1-[3-[6-(6-methoxy-3-pyridyl)-3,4-dihydro-2H-quinolin-1-yl]-1-(oxetan-3-yl)-6,7-dihydro-4H-pyrazolo[4,3-c]pyridin-5-yl]ethanone] | – | > 20000 nM | 2.6 µM |
| CC(=O)N1CCc2c(c(N3CCCc4cc(-c5cnn(C)c5C)ccc43)nn2C2COC2)C1 [Example 36, 1-[3-[6-(1,5-dimethylpyrazol-4-yl)-3,4-dihydro-2H-quinolin-1-yl]-1-(oxetan-3-yl)-6,7-dihydro-4H-pyrazolo[4,3-c]pyridin-5-yl]ethanone] | – | > 20000 nM | 1.86 µM |
| CC(=O)N1CCc2c(c(N3CCCc4cc(-c5ncn(C)n5)ccc43)nn2C2COC2)C1 [Example 41, 1-[3-[6-(1-methyl-1,2,4-triazol-3-yl)-3,4-dihydro-2H-quinolin-1-yl]-1-(oxetan-3-yl)-6,7-dihydro-4H-pyrazolo[4,3-c]pyridin-5-yl]ethanone] | – | > 20000 nM | – |
| CC(=O)N1CCc2c(c(N3CCCc4cc(-c5ccncc5)ccc43)nn2C2COC2)C1 [Example 8, 1-[1-(oxetan-3-yl)-3-[6-(4-pyridyl)-3,4-dihydro-2H-quinolin-1-yl]-6,7-dihydro-4H-pyrazolo[4,3-c]pyridin-5-yl]ethanone] | – | > 20000 nM | – |
| CC(=O)N1CCc2c(c(N3CCCc4cc(-c5cnn(C6CC6)c5)ccc43)nn2[C@H]2CCOC2)C1 [Example 49, 1-[3-[6-(1-cyclopropylpyrazol-4-yl)-3,4-dihydro-2H-quinolin-1-yl]-1-[(3S)-tetrahydrofuran-3-yl]-6,7-dihydro-4H-pyrazolo[4,3-c]pyridin-5-yl]ethanone] | – | 14300 nM | 1.13 µM |
| COc1cc(-c2ccc3c(c2)CCCN3c2nn(C3COC3)c3c2CN(C(C)=O)CC3)ccn1 [Example 17, 1-[3-[6-(2-methoxy-4-pyridyl)-3,4-dihydro-2H-quinolin-1-yl]-1-(oxetan-3-yl)-6,7-dihydro-4H-pyrazolo[4,3-c]pyridin-5-yl]ethanone] | – | 8800 nM | 1.14 µM |
| CC(=O)Nc1ccc(-c2ccc3c(c2)CCCN3c2nn(C3CCOCC3)c3c2CN(C(C)=O)CC3)cn1 [Example 61, N-[5-[1-(5-acetyl-1-tetrahydropyran-4-yl-6,7-dihydro-4H-pyrazolo[4,3-c]pyridin-3-yl)-3,4-dihydro-2H-quinolin-6-yl]-2-pyridyl]acetamide] | – | > 20000 nM | – |
| CC(=O)N1CCc2c(c(N3CCCc4cc(-c5cc(C)[nH]n5)ccc43)nn2[C@H]2CCOC2)C1 [Example 58, 1-[3-[6-(5-methyl-1H-pyrazol-3-yl)-3,4-dihydro-2H-quinolin-1-yl]-1-[(3S)-tetrahydrofuran-3-yl]-6,7-dihydro-4H-pyrazolo[4,3-c]pyridin-5-yl]ethanone] | – | > 20000 nM | 0.199 µM |
| COc1cc(-c2ccc3c(c2)CCCN3c2nn([C@H]3CCOC3)c3c2CN(C(C)=O)CC3)ccn1 [Example 48, 1-[3-[6-(2-methoxy-4-pyridyl)-3,4-dihydro-2H-quinolin-1-yl]-1-[(3S)-tetrahydrofuran-3-yl]-6,7-dihydro-4H-pyrazolo[4,3-c]pyridin-5-yl]ethanone] | – | 7700 nM | 0.669 µM |
| CC(=O)N1CCc2c(c(N3CCCc4cc(-c5c(C)cnn5C)ccc43)nn2C2COC2)C1 [Example 20, 1-[3-[6-(2,4-dimethylpyrazol-3-yl)-3,4-dihydro-2H-quinolin-1-yl]-1-(oxetan-3-yl)-6,7-dihydro-4H-pyrazolo[4,3-c]pyridin-5-yl]ethanone] | – | > 20000 nM | – |
| CC(=O)Nc1ccc(-c2ccc3c(c2)CCCN3c2nn(C3COC3)c3c2CN(C(C)=O)CC3)cn1 [Example 33, N-[5-[1-[5-acetyl-1-(oxetan-3-yl)-6,7-dihydro-4H-pyrazolo[4,3-c]pyridin-3-yl]-3,4-dihydro-2H-quinolin-6-yl]-2-pyridyl]acetamide] | – | > 20000 nM | 1.58 µM |
| CC(=O)N1CCc2c(c(N3CCCc4cc(-c5cn(C)nc5C)ccc43)nn2[C@H]2CCOC2)C1 [Example 55, 1-[3-[6-(1,3-dimethylpyrazol-4-yl)-3,4-dihydro-2H-quinolin-1-yl]-1-[(3S)-tetrahydrofuran-3-yl]-6,7-dihydro-4H-pyrazolo[4,3-c]pyridin-5-yl]ethanone] | – | > 20000 nM | 0.254 µM |
